Experimental data from patent publication US20060239988A1 (published 2006).

Biological target: T1, recombinant Syrian hamster vimentin (Cytoskeleton Inc.) (Syrian hamster, UniProt P02544 2-465, limits assumed)
T1 construct: also called pure vimentin; purified hamster vimentin
Assay: GST pull-down in vitro with purified hamster vimentin (0.1 microgram), negative control, Western blot

T1 sequence (P02544 2-465 limits assumed): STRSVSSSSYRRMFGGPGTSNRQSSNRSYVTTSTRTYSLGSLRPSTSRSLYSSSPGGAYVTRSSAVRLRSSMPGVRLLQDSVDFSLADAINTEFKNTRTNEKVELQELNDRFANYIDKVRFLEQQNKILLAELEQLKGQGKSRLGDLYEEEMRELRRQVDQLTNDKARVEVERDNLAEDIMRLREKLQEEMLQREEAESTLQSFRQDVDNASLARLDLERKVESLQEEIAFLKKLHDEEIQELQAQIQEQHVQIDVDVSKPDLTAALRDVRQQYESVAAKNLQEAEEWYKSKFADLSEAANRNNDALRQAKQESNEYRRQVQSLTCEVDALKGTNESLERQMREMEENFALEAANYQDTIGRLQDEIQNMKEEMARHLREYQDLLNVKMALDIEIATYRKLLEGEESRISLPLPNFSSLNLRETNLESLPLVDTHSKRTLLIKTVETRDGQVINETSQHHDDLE

B1: GST alone (other)
chain: not shown
notes: Negative control of the GST pull-downs
- binding result: no binding
